Results on 52 sequences are retold here after publication PMC6602471.

Some of the results follow. At the low end of the ranking the order means little.

In the assay the target is T1, ETS1 (UniProt P14921).
T1 sequence: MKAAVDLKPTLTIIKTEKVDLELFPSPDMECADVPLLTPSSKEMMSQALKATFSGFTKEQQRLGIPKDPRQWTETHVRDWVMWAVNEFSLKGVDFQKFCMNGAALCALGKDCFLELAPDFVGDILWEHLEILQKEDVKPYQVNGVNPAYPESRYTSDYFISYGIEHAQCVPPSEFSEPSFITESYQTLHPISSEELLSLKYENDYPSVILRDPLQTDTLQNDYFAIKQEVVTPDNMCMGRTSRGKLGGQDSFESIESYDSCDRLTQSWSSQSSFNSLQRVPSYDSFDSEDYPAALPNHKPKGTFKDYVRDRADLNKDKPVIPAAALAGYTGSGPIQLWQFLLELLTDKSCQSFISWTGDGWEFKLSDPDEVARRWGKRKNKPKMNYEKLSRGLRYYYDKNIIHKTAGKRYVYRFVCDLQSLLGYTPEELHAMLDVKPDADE
Kind of assay: custom PBM. The following applies: custom protein-binding microarray; buffer, salt, pH and temperature not stated; high values mean tight binding; double strand, one strand shown.
In the case of “CTGGGACTTGACTCAACTCTGCCACGTGGGTCGTTTGTCTTGATTCGCTTGACGCTGCTG”, the binding signal (log fluorescence intensity) amounted to 8.25.
With “CGGAAGTGCCGTAAACGTCGGATATCCGGTTCTTCTGTCTTGATTCGCTTGACGCTGCTG”, the binding signal (log fluorescence intensity) came to 11.7.
Consider “TAAAGGGAAGACGGTTATGGTAGTTCCGGGTATTAAGTCTTGATTCGCTTGACGCTGCTG”, for which the binding signal (log fluorescence intensity) was 8.72.
The result for “CGGATGTGTCGTAAACGTCGGATATCCGGTTCTTCTGTCTTGATTCGCTTGACGCTGCTG” reads 11.8; that for “CAGCATAGGACTTCTTCCCTGAAGCAATTGATAAGCGTCTTGATTCGCTTGACGCTGCTG”, 8.16.
The result for “GAGTAATTTCTGCCCTTATTCGCACGTGCCATAACAGTCTTGATTCGCTTGACGCTGCTG” reads 8.27.
Turning to “GATTAAGTTCTGCCCTTATTCGCACGTGCCATAACAGTCTTGATTCGCTTGACGCTGCTG”, the binding signal (log fluorescence intensity) came to 8.33.
Consider “CGGAAGTGTCGTAAACGTCGGATACCCGGTTCTTCTGTCTTGATTCGCTTGACGCTGCTG”, for which the binding signal (log fluorescence intensity) was determined as 8.31.
Regarding “GGAAAAAGGCCCAGGGTAACACCGAAAGTGGGCTTAGTCTTGATTCGCTTGACGCTGCTG”, the binding signal (log fluorescence intensity) was 8.21.
In the case of “ATGGGACTTGACCCAACTCTGCCACGTGGGTCGTTTGTCTTGATTCGCTTGACGCTGCTG”, the binding signal (log fluorescence intensity) was found to be 8.26.
“TAAAGGGAAGACGGTTGTGGTAGTTCCGGCTATTAAGTCTTGATTCGCTTGACGCTGCTG”: the binding signal (log fluorescence intensity) amounted to 9.
“TGTCGGGTAAGGGAATGTAGATCACGTGAATTAAAAGTCTTGATTCGCTTGACGCTGCTG”: the binding signal (log fluorescence intensity) came out at 8.29.
In the case of “TGTCGGGTAAGGGAACGTAGATCACGTGAATGAAAAGTCTTGATTCGCTTGACGCTGCTG”, the binding signal (log fluorescence intensity) was found to be 8.19.
Turning to “CGGAAGTGTCGTGAACGTCGGATATCCGGTTCTTCTGTCTTGATTCGCTTGACGCTGCTG”, the binding signal (log fluorescence intensity) was found to be 11.7.
“CAGCGTAGGACTTCTTCCCTGAAGCAATTGATAACCGTCTTGATTCGCTTGACGCTGCTG”: the binding signal (log fluorescence intensity) stood at 8.44.
“CGGCATAGGACTTCTTCCCTGAAGCAATTGATAACCGTCTTGATTCGCTTGACGCTGCTG”: the binding signal (log fluorescence intensity) was determined as 8.15.
The result for “TGTCGGGTAAGGGAATGTAGATCACGTCAATGAAAAGTCTTGATTCGCTTGACGCTGCTG” reads 8.14; that for “CAGCATAGGACTTCTTCCCTGAAGCAATTGGTAACCGTCTTGATTCGCTTGACGCTGCTG”, 8.23.
Consider “TCCGGCTACCAGCTCCACCCACTTCAGGCCTTGTTGGTCTTGATTCGCTTGACGCTGCTG”, for which the binding signal (log fluorescence intensity) came to 8.13.
The result for “CGTCGGGTAAGGGAATGTAGATCACGTGAATGAAAAGTCTTGATTCGCTTGACGCTGCTG” reads 8.15; that for “GTGTATAGGATCACATCCAACACACGTGTTAAAATGGTCTTGATTCGCTTGACGCTGCTG”, 8.22.
As to “GTGAATAGGATCCCATCCAACACACGTGTTAAAATGGTCTTGATTCGCTTGACGCTGCTG”, the binding signal (log fluorescence intensity) is 7.87.
Consider “TAAAGGGAAAACGGTTGTGGTAGTTCCGGGTATTAAGTCTTGATTCGCTTGACGCTGCTG”, for which the binding signal (log fluorescence intensity) turned out to be 8.51.
As to “TAAATGGAAGACGGTTGTGGTAGTTCCGGGTATTAAGTCTTGATTCGCTTGACGCTGCTG”, the binding signal (log fluorescence intensity) is 8.49.
The result for “GGAAAAAGGCCCAGGGTAACACCGCAAGTGGGCTTAGTCTTGATTCGCTTGACGCTGCTG” reads 8.1; that for “TAAAGGGAAGACGGTTGGGGTAGTTCCGGGTATTAAGTCTTGATTCGCTTGACGCTGCTG”, 8.62.
The result for “TCCGGCTACCAGCTCCACTCACTTCAGGCCTTGTAGGTCTTGATTCGCTTGACGCTGCTG” reads 8.4; that for “CAGGGACTTGACCCAACTCTGCCACGTGGGTCGTTTGTCTTGATTCGCTTGACGCTGCTG”, 8.19; that for “GTGTATAGGATCCCATCCAACACACGTGTTAAGATGGTCTTGATTCGCTTGACGCTGCTG”, 8.25.
Consider “GCTGCTGCGGTGCATACCCCACCGGATGCGACCCCGGTCTTGATTCGCTTGACGCTGCTG”, for which the binding signal (log fluorescence intensity) worked out at 9.3.
Turning to “CACAATTTTTACAGTAATGTATCACGCGTAACTCCTGTCTTGATTCGCTTGACGCTGCTG”, the binding signal (log fluorescence intensity) turned out to be 8.06.
As for “TACTGACTTATAGATGCGAATGCACATGAATAGACCGTCTTGATTCGCTTGACGCTGCTG”, the binding signal (log fluorescence intensity) was found to be 8.45.
On to “TACTGACTTATCTATGCGAATGCACATGAATAGACCGTCTTGATTCGCTTGACGCTGCTG”, for which the binding signal (log fluorescence intensity) was 8.13.
With “TGTCGGGTAAGGGAATGTAGATCACGTGAATCAAAAGTCTTGATTCGCTTGACGCTGCTG”, the binding signal (log fluorescence intensity) is 8.24.
“CACAATTTTTACAGAAATGTAGCACGCGTAACTCCTGTCTTGATTCGCTTGACGCTGCTG”: the binding signal (log fluorescence intensity) is 8.38.
For “CGGAAGTGTCGTAAACGTCGGATATCCGGTTGTTCTGTCTTGATTCGCTTGACGCTGCTG”, the binding signal (log fluorescence intensity) was found to be 11.9.
Turning to “CACGATTTTTACAGTAATGTAGCACGCGTAACTCCTGTCTTGATTCGCTTGACGCTGCTG”, the binding signal (log fluorescence intensity) was 8.33.
As to “CTGGGACTTGACCCAACTCTGCCACGTGGATCGTTTGTCTTGATTCGCTTGACGCTGCTG”, the binding signal (log fluorescence intensity) turned out to be 8.03.
With “TCCGGCTACCGGCTCCACCCACTTCAGGCCTTGTAGGTCTTGATTCGCTTGACGCTGCTG”, the binding signal (log fluorescence intensity) was determined as 8.32.
For the sequence “GGAAAAAGGCGCAGGGTAACACCGGAAGTGGGCTTAGTCTTGATTCGCTTGACGCTGCTG”, the binding signal (log fluorescence intensity) came to 11.9.
In the case of “GTGTATAGGATCCCATCCAACACACGTGGTAAAATGGTCTTGATTCGCTTGACGCTGCTG”, the binding signal (log fluorescence intensity) was found to be 8.22.
For “GGAAAAAGGCCCAGGGTAACACCGGAAGTGGGCTTGGTCTTGATTCGCTTGACGCTGCTG”, the binding signal (log fluorescence intensity) worked out at 11.8.
“CTGGGACTTGACCCAACTCTGCCACCTGGGTCGTTTGTCTTGATTCGCTTGACGCTGCTG”: the binding signal (log fluorescence intensity) was determined as 8.18.
The result for “CGGAAGTGTCGTAAACTTCGGATATCCGGTTCTTCTGTCTTGATTCGCTTGACGCTGCTG” reads 11.9; that for “GTGTATAGGATCCCATCCAACAGACGTGTTAAAATGGTCTTGATTCGCTTGACGCTGCTG”, 8.07.
For “CACAATTTATACAGTAATGTAGCACGCGTAACTCCTGTCTTGATTCGCTTGACGCTGCTG”, the binding signal (log fluorescence intensity) was 8.23.
The result for “CGGAAGTGTCGTAAACGTCGGATAACCGGTTCTTCTGTCTTGATTCGCTTGACGCTGCTG” reads 8.34.
Take “GATTAATTTCAGCCCTTATTCGCACGTGCCATAACAGTCTTGATTCGCTTGACGCTGCTG”: the binding signal (log fluorescence intensity) was 8.2.
On to “CGGAAGTGTCGTAAACGTCGGATATCCGGTTCTTGTGTCTTGATTCGCTTGACGCTGCTG”, for which the binding signal (log fluorescence intensity) came to 11.9.
Turning to “CTGGGACTTGACCCAACTCTGCCACGTGGGTCGTTAGTCTTGATTCGCTTGACGCTGCTG”, the binding signal (log fluorescence intensity) came to 8.07.
On to “CAGCATAGGACTTCTTCCCTGAAGCATTTGATAACCGTCTTGATTCGCTTGACGCTGCTG”, for which the binding signal (log fluorescence intensity) is 8.31.
Consider “GATTAATCTCTGCCCTTATTCGCACGTGCCATAACAGTCTTGATTCGCTTGACGCTGCTG”, for which the binding signal (log fluorescence intensity) is 8.31.
